# According to PubChem BioAssay AID2147 (National Center for Advancing Translational Sciences (NCATS), 2009):
# In all, about 230,000 compounds went through this assay and about 3,600 (1.6%) were called active. The shares of active, inactive and inconclusive entries below differ from those in the screen. Calls follow the shape of the dose curve; as a rule, active = well fitted inhibition curve with a large enough effect (not every such curve was filed as active); inconclusive = small, poorly fitted or top-dose-only effect, or another doubt; inactive = no such curve, though single readings can be large or run the other way. Potencies beside an inconclusive call are fits to weak or partial responses and may not hold up.
# Biological target: Lysine-specific demethylase 4E (Homo sapiens) (UniProt B2RXH2)
# Assay: qHTS Assay for Inhibitors of Human Jumonji Domain Containing 2E (JMJD2E)
# Settings: JMJD2E catalytic domain, FDH-coupled NADH fluorescence (FDH is formaldehyde dehydrogenase); series mostly up to 57.1 µM; activity change, negative = inhibition: at the top concentration
# Also: nearly all actives have a fitted effect of over 50% in size.
# 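For activity change, negative = inhibition in this document: 0% = wells with enzyme and -100% = buffer wells without enzyme.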
# Potency is read from the fitted curve at half-maximal effect; tags tell the direction and shape of the fitted curve.
# Chain of UniProt B2RXH2 (B2RXH2 whole entry, looked up, the tested form may be a part): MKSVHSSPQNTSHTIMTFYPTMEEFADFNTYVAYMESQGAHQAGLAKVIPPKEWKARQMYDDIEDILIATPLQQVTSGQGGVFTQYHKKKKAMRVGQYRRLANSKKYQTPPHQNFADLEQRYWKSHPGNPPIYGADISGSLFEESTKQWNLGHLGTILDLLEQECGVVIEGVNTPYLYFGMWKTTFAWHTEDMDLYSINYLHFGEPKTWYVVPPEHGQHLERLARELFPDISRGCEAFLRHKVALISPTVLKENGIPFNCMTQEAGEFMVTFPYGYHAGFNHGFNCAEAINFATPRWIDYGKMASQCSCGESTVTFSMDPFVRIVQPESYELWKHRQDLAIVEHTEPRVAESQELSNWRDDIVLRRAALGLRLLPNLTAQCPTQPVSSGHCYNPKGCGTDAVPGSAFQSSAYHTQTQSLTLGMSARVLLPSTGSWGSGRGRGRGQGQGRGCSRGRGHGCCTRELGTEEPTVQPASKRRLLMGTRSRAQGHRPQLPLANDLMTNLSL
SMILES,"activity change, negative = inhibition",Potency
NC(=O)c1ccc(SCC(=O)NC2CCCCC2)c([N+](=O)[O-])c1,inactive: 1.41%,–
CCSc1nc2sc3c(c2c(=O)n1C1CCCCC1)CCN(C)C3,–,"inconclusive: 35.5 µM [inhibitor, single point]"
COC(=O)[C@@]1(Cc2ccccc2)[C@H]2c3cc(C(=O)N(C)C)n(CCN4CNCC4=O)c3C[C@H]2CN1C(=O)c1ccccc1,inactive: -19.5%,–
CC1(C)CC(=O)c2cnc(N)nc2C1,inactive: 4.51%,–
COc1cccc([C@@H]2Oc3ccc(Br)cc3C(=O)[C@H]2OC(=O)N[C@H](C)C2CCCCC2)c1,inactive: -6.28%,–
COc1c(N2CCN(C(=S)NCc3ccccc3)C(C)C2)c(F)cc2c(=O)c(C(=O)O)cn(C3CC3)c12 (stereo not given),–,"inconclusive: 39.8 µM [inhibitor, single point]"
COc1ccc2[nH]cc(C(=O)CNc3nc(C)cs3)c2c1,–,"inconclusive: 35.5 µM [inhibitor, single point]"
O=c1[nH]c(-c2ccccc2)nc2sc(-c3ccccc3)cc12,–,"inconclusive: 11.2 µM [inhibitor, partial curve]"
FCCCOc1ccc(-c2nccc(-c3ccc(Br)cc3)n2)cc1,–,"inconclusive: 39.8 µM [inhibitor, single point]"
Nc1c(C(=O)NC2CCCC2)c2nc3ccccc3nc2n1/N=C/c1ccco1,–,"inconclusive: 12.6 µM [inhibitor, partial curve]"
CC1CCN(C(=O)CSc2ccc(-c3ccc(F)cc3)nn2)CC1,inactive: -2.06%,–
CCc1ccc(CNc2ccc3c(c2)ncn3C)cc1,–,"inconclusive: 28.2 µM [inhibitor, single point]"
O=C(CCC1CCCN(C(=O)Cc2ccc(F)cc2)C1)N1CCN(c2ccccn2)CC1 (stereo not given),–,"inconclusive: 39.8 µM [inhibitor, single point]"
C=CCNC(=O)C1CCN(c2cnccn2)CC1,–,"inconclusive: 25.1 µM [inhibitor, partial curve]"
CCc1nc(Nc2ccncc2)c2oc3ccccc3c2n1,–,"inconclusive: 28.2 µM [inhibitor, partial curve]"
CCOC(=O)N[C@H](Cc1c[nH]c2ccccc12)C(=O)NC1CC1,–,"inconclusive: 28.2 µM [inhibitor, partial curve]"
CCCC[n+]1ccn(-c2nc3ccccc3nc2[N-]S(=O)(=O)c2ccc(C)cc2)c1,–,"inconclusive: 25.1 µM [inhibitor, partial curve]"
O=C1c2cccc3c(O)ccc(c23)C(=O)N1Cc1ccccc1,inactive: -0.934%,–
Cc1cccn2c(=O)c3cc(C(=O)NCCc4ccccc4)c(=N)n(CCCn4ccnc4)c3nc12,inactive: 3.93%,–
O=C1CCC/C(=N\NC(=O)COc2ccc(Cl)cc2)C1,–,"inconclusive: 39.8 µM [inhibitor, single point]"
COc1cc(OC)c(C2C(C(=O)O)c3ccccc3C(=O)N2C)cc1OC (stereo not given),–,"inconclusive: 39.8 µM [inhibitor, single point]"
CCCCOc1ccc(C2OC34CCCCC3C(C#N)(C#N)C2(C#N)C(=N)O4)cc1 (stereo not given),–,"inconclusive: 31.6 µM [inhibitor, partial curve]"
Cn1cccc1/C=C1\SC(=Nc2ccccc2)NC1=O,inactive: 0.24%,–

SMILES,"activity change, negative = inhibition",Potency
Cc1ccc(N=Cc2cc(Cc3ccccc3Cl)cc([N+](=O)[O-])c2O)c(O)c1,–,active: 17.8 µM
COc1ccc(S(=O)(=O)N2CCN(c3ccccn3)CC2)cc1OC,–,"inconclusive: 31.6 µM [inhibitor, single point]"
O=C(CC(=O)c1ccccc1O)c1cccc(F)c1,–,"inconclusive: 39.8 µM [inhibitor, single point]"
O=S(=O)(c1cnc(Cl)c(Br)c1)N1CCN(c2ncccn2)CC1,inactive: 1.87%,–
NC(=O)c1cnn2c(-c3cccc(C(F)(F)F)c3)ccnc12,–,"inconclusive: 31.6 µM [inhibitor, single point]"
O=c1nc2scc(-c3ccccc3)n2c2ccccc12,–,"inconclusive: 39.8 µM [inhibitor, single point]"
CC(=O)N1CCCC(C(=O)c2ccc3c4c(cccc24)CC3)C1 (stereo not given),–,"inconclusive: 28.2 µM [inhibitor, partial curve]"
O=C(CN1C(=O)C2CCCCC2C1=O)Nc1nc(-c2ccccn2)cs1 (stereo not given),–,"inconclusive: 31.6 µM [inhibitor, single point]"
COc1ccc(/C=N/Nc2nc3ccccc3c(=O)n2-c2ccccc2)cc1OC,–,"inconclusive: 39.8 µM [inhibitor, single point]"
NC(=O)C(=O)O,inactive: -8.32%,–
Nc1nnnn1/N=C/c1ccccc1C(F)(F)F,–,"inconclusive: 35.5 µM [inhibitor, single point]"
Cc1ccc(-n2nc(C)c(C(=O)O)n2)c(C)c1,–,"inconclusive: 39.8 µM [inhibitor, single point]"
COCCOc1cnn(-c2cc(Oc3ccc(C)cc3)ncn2)c(=O)c1Cl,inactive: 0.493%,–
c1ccc2c(c1)nc1n2C2(N3CCOCC3)CCCC2C1N1CCOCC1 (stereo not given),–,"inconclusive: 35.5 µM [inhibitor, single point]"
Cc1ccc(O)c(C(=O)c2cc(C#N)c(=O)n(-c3c(C)n(C)n(-c4ccccc4)c3=O)c2)c1,inactive: -2.61%,–
Cc1n[nH]c(C)c1Cc1c(F)cccc1Cl,inactive: 2.94%,–
Fc1ccc(CNc2ncnc3c2cnn3-c2ccccc2)cc1,–,"inconclusive: 39.8 µM [inhibitor, single point]"
Cc1ccc(NS(=O)(=O)c2cc([N+](=O)[O-])ccc2NNC(=S)Nc2cccc(Cl)c2)c(C)c1,–,"inconclusive: 39.8 µM [inhibitor, single point]"
COc1ccc(S(=O)(=O)N2CCOCC2)cc1NC(=O)c1ccc(-n2nc(C)cc2C)cc1,–,"inconclusive: 35.5 µM [inhibitor, partial curve]"
CCCCC(=NCCc1c(C)[nH]c2ccc(OC)cc12)C1=C(O)CC(c2ccccc2)CC1=O (stereo not given),–,active: 25.1 µM
COC(=O)C1CCN(C(=O)c2cc3c(=O)n4cccc(C)c4nc3n2Cc2ccccc2)CC1,–,"inconclusive: 1 µM [inhibitor, full curve]"
COc1ccc(-c2cn(-c3ccc(OC)cc3)c3[n+]2-c2ccccc2CC3)cc1,–,"inconclusive: 31.6 µM [inhibitor, single point]"
